A lower IC50 marks a more sensitive line; a fit beyond the top or the lowest dose is shown as a bound at that dose. For AUC the same curve is integrated over the 256-fold range of doses and scaled to a fraction; values near 1 show little effect. For some assays here: A top dose marked as inferred was calculated from the reported fits. For some assays here: Where an entry number is given, a second screen of the drug exists; the two often differ.
Assays:
Assay in all cases: Viability of human cancer cell lines after 72 h of drug (GDSC screen)
SNX-2112 = compound: CC1(C)CC(=O)c2c(C(F)(F)F)nn(-c3ccc(C(N)=O)c(N[C@H]4CC[C@H](O)CC4)c3)c2C1 [SNX-2112]; conditions: top dose 2.56 µM
Experimental: (§1)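 Human cancer cell lines in 384-well plates, medium with 10% serum, drug for 72 h over a 256-fold dose range (nine 2-fold or five 4-fold steps up to the top dose). Adherent lines were fixed and stained with the nucleic acid dye Syto60, suspension lines read with resazurin; signal relative to control wells, capped at 0 and 100%. One two-parameter sigmoid per drug and line, fitted in a mixed model over all curves with the slope shared within a line.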

PF-562271 = compound: CN(c1ncccc1CNc1nc(Nc2ccc3c(c2)CC(=O)N3)ncc1C(F)(F)F)S(C)(=O)=O [PF-562271]; conditions: top dose 2.56 µM; top dose inferred
Experimental: as §1

Afatinib = compound: CN(C)C/C=C/C(=O)Nc1cc2c(Nc3ccc(F)c(Cl)c3)ncnc2cc1O[C@H]1CCOC1 [Afatinib]
Experimental: as §1

XMD13-2 = compound: O=C(NC1CC1)c1cccc(-c2ccc3c(NC(=O)C4CC4)n[nH]c3c2)c1 [XMD13-2]; conditions: top dose 10.24 µM; top dose inferred
Experimental: as §1

[1] = top dose 0.5 µM, screen: GDSC drug entry 1032
[2] = top dose 10 µM, screen: GDSC drug entry 1377, top dose inferred

“697 (lymphoblastic leukaemia, suspension)” gave an AUC (SNX-2112) of 0.249, an IC50 (SNX-2112) of 36.6 nM and an AUC (PF-562271) of 0.896. For the same cell line, the IC50 (PF-562271) was 2030 nM, the AUC (Afatinib; [1]) was 0.977 and the IC50 (Afatinib; [1]) was > 0.5 µM. For the same cell line, the AUC (Afatinib; [2]) was 0.969, the IC50 (Afatinib; [2]) was > 10 µM and the AUC (XMD13-2) was 0.803. For the same cell line, the IC50 (XMD13-2) was 3.94 µM.
Cell Line 769-P (kidney, adherent) has an AUC (SNX-2112) of 0.565, an IC50 (SNX-2112) of 244 nM and an AUC (PF-562271) of 0.896. For the same cell line, the IC50 (PF-562271) was > 2560 nM, the AUC (Afatinib; [2]) was 0.602 and the IC50 (Afatinib; [2]) was 1.22 µM. The AUC (XMD13-2) was 0.973 and the IC50 (XMD13-2) was > 10.2 µM.
In the case of 786-0 (kidney, adherent), the AUC (SNX-2112) is reported as 0.409, the IC50 (SNX-2112) is reported as 92.2 nM and the AUC (PF-562271) is reported as 0.881. The IC50 (PF-562271) was 2300 nM, the AUC (Afatinib; [2]) was 0.953 and the IC50 (Afatinib; [2]) was > 10 µM. The AUC (XMD13-2) was 0.854 and the IC50 (XMD13-2) was 7.06 µM.
A172 (glioma, adherent) showed an AUC (SNX-2112) of 0.828, an IC50 (SNX-2112) of 1490 nM and an AUC (PF-562271) of 0.929. For the same cell line, the IC50 (PF-562271) was > 2560 nM, the AUC (Afatinib; [2]) was 0.981 and the IC50 (Afatinib; [2]) was > 10 µM. The AUC (XMD13-2) was 0.94 and the IC50 (XMD13-2) was > 10.2 µM.
With A204 (rhabdomyosarcoma, adherent) the AUC (SNX-2112) was 0.554, the IC50 (SNX-2112) was 234 nM and the AUC (PF-562271) was 0.847. The IC50 (PF-562271) was > 2560 nM, the AUC (Afatinib; [2]) was 0.88 and the IC50 (Afatinib; [2]) was > 10 µM. For the same cell line, the AUC (XMD13-2) was 0.922 and the IC50 (XMD13-2) was > 10.2 µM.
“A427 (non-small cell lung carcinoma, adherent)” gave an AUC (SNX-2112) of 0.836, an IC50 (SNX-2112) of 1720 nM and an AUC (PF-562271) of 0.931. For the same cell line, the IC50 (PF-562271) was > 2560 nM, the AUC (Afatinib; [1]) was 0.985 and the IC50 (Afatinib; [1]) was > 0.5 µM. For the same cell line, the AUC (Afatinib; [2]) was 0.985, the IC50 (Afatinib; [2]) was > 10 µM and the AUC (XMD13-2) was 0.981. The IC50 (XMD13-2) was > 10.2 µM.
For A673 (rhabdomyosarcoma, adherent), the AUC (SNX-2112) was 0.855, the IC50 (SNX-2112) was 1720 nM and the AUC (PF-562271) was 0.969. For the same cell line, the IC50 (PF-562271) was > 2560 nM, the AUC (Afatinib; [2]) was 0.977 and the IC50 (Afatinib; [2]) was > 10 µM. For the same cell line, the AUC (XMD13-2) was 0.945 and the IC50 (XMD13-2) was > 10.2 µM.
In the case of A2780 (ovary, semi-adherent), the AUC (SNX-2112) is reported as 0.23, the IC50 (SNX-2112) is reported as 25.4 nM and the AUC (PF-562271) is reported as 0.895. For the same cell line, the IC50 (PF-562271) was > 2560 nM, the AUC (Afatinib; [1]) was 0.972 and the IC50 (Afatinib; [1]) was > 0.5 µM. The AUC (Afatinib; [2]) was 0.978, the IC50 (Afatinib; [2]) was > 10 µM and the AUC (XMD13-2) was 0.844. For the same cell line, the IC50 (XMD13-2) was 7.75 µM.
BCPAP (thyroid, adherent) showed an AUC (SNX-2112) of 0.423, an IC50 (SNX-2112) of 101 nM and an AUC (PF-562271) of 0.788. The AUC (Afatinib; [2]) was 0.988, the IC50 (Afatinib; [2]) was > 10 µM and the AUC (XMD13-2) was 0.87. It also gave an IC50 (XMD13-2) of 8.08 µM.
For “BEN (non-small cell lung carcinoma, adherent)”, the AUC (SNX-2112) was 0.913, the IC50 (SNX-2112) was > 2560 nM and the AUC (PF-562271) was 0.958. For the same cell line, the IC50 (PF-562271) was > 2560 nM, the AUC (Afatinib; [2]) was 0.984 and the IC50 (Afatinib; [2]) was > 10 µM. For the same cell line, the AUC (XMD13-2) was 0.977 and the IC50 (XMD13-2) was > 10.2 µM.
BFTC-909 (kidney, adherent) was tested, and the AUC (SNX-2112) was 0.83, the IC50 (SNX-2112) was 1560 nM and the AUC (PF-562271) was 0.977. For the same cell line, the IC50 (PF-562271) was > 2560 nM, the AUC (Afatinib; [2]) was 0.9 and the IC50 (Afatinib; [2]) was > 10 µM. The AUC (XMD13-2) was 0.988 and the IC50 (XMD13-2) was > 10.2 µM.
With BHY (head and neck, adherent) the AUC (SNX-2112) was 0.516, the IC50 (SNX-2112) was 177 nM and the AUC (PF-562271) was 0.777. For the same cell line, the IC50 (PF-562271) was 1030 nM, the AUC (Afatinib; [2]) was 0.655 and the IC50 (Afatinib; [2]) was 1.69 µM. For the same cell line, the AUC (XMD13-2) was 0.937 and the IC50 (XMD13-2) was > 10.2 µM.
For BPH-1 (prostate, adherent), the AUC (SNX-2112) was 0.386, the IC50 (SNX-2112) was 75.2 nM and the AUC (PF-562271) was 0.758. For the same cell line, the IC50 (PF-562271) was 976 nM, the AUC (Afatinib; [2]) was 0.407 and the IC50 (Afatinib; [2]) was 0.339 µM. The AUC (XMD13-2) was 0.615 and the IC50 (XMD13-2) was 1.38 µM.
For BT-20 (breast, adherent), the AUC (SNX-2112) was 0.884, the IC50 (SNX-2112) was > 2560 nM and the AUC (PF-562271) was 0.931. For the same cell line, the IC50 (PF-562271) was > 2560 nM, the AUC (Afatinib; [1]) was 0.871 and the IC50 (Afatinib; [1]) was > 0.5 µM. The AUC (Afatinib; [2]) was 0.899, the IC50 (Afatinib; [2]) was > 10 µM and the AUC (XMD13-2) was 0.938. The IC50 (XMD13-2) was > 10.2 µM.
BT-483 (breast, adherent) was tested, and the AUC (SNX-2112) was 0.879, the IC50 (SNX-2112) was > 2560 nM and the AUC (PF-562271) was 0.967. For the same cell line, the IC50 (PF-562271) was > 2560 nM, the AUC (Afatinib; [1]) was 0.973 and the IC50 (Afatinib; [1]) was > 0.5 µM. The AUC (Afatinib; [2]) was 0.975, the IC50 (Afatinib; [2]) was > 10 µM and the AUC (XMD13-2) was 0.966. The IC50 (XMD13-2) was > 10.2 µM.
With CAL-54 (kidney, adherent) the AUC (SNX-2112) was 0.934, the IC50 (SNX-2112) was > 2560 nM and the AUC (PF-562271) was 0.95. The IC50 (PF-562271) was > 2560 nM, the AUC (Afatinib; [2]) was 0.878 and the IC50 (Afatinib; [2]) was > 10 µM. For the same cell line, the AUC (XMD13-2) was 0.973 and the IC50 (XMD13-2) was > 10.2 µM.
With CAMA-1 (breast, adherent) the AUC (SNX-2112) was 0.841, the IC50 (SNX-2112) was 2480 nM and the AUC (PF-562271) was 0.884. The IC50 (PF-562271) was > 2560 nM, the AUC (Afatinib; [2]) was 0.962 and the IC50 (Afatinib; [2]) was > 10 µM. The AUC (XMD13-2) was 0.94 and the IC50 (XMD13-2) was > 10.2 µM.
With “CCRF-CEM (lymphoblastic leukaemia, suspension)” the AUC (SNX-2112) was 0.167, the IC50 (SNX-2112) was 19.8 nM and the AUC (PF-562271) was 0.9. The IC50 (PF-562271) was 2350 nM, the AUC (Afatinib; [1]) was 0.972 and the IC50 (Afatinib; [1]) was > 0.5 µM. For the same cell line, the AUC (Afatinib; [2]) was 0.979, the IC50 (Afatinib; [2]) was > 10 µM and the AUC (XMD13-2) was 0.737. For the same cell line, the IC50 (XMD13-2) was 2.66 µM.
COLO-792 (melanoma, adherent) showed an AUC (SNX-2112) of 0.872, an IC50 (SNX-2112) of 2370 nM and an AUC (PF-562271) of 0.947. The IC50 (PF-562271) was > 2560 nM, the AUC (Afatinib; [2]) was 0.987 and the IC50 (Afatinib; [2]) was > 10 µM. The AUC (XMD13-2) was 0.824 and the IC50 (XMD13-2) was 5.98 µM.
With COLO-829 (melanoma, adherent) the AUC (SNX-2112) was 0.904, the IC50 (SNX-2112) was > 2560 nM and the AUC (PF-562271) was 0.725. The IC50 (PF-562271) was 963 nM, the AUC (Afatinib; [2]) was 0.933 and the IC50 (Afatinib; [2]) was > 10 µM. The AUC (XMD13-2) was 0.958 and the IC50 (XMD13-2) was > 10.2 µM.
“COR-L105 (lung adenocarcinoma, adherent)” was tested, and the AUC (SNX-2112) was 0.463, the IC50 (SNX-2112) was 124 nM and the AUC (PF-562271) was 0.886. For the same cell line, the IC50 (PF-562271) was > 2560 nM, the AUC (Afatinib; [2]) was 0.338 and the IC50 (Afatinib; [2]) was 0.2 µM. The AUC (XMD13-2) was 0.91 and the IC50 (XMD13-2) was > 10.2 µM.
Calu-6 (lung adenocarcinoma, adherent) was tested, and the AUC (SNX-2112) was 0.765, the IC50 (SNX-2112) was 1070 nM and the AUC (PF-562271) was 0.877. The IC50 (PF-562271) was > 2560 nM, the AUC (Afatinib; [1]) was 0.978 and the IC50 (Afatinib; [1]) was > 0.5 µM. The AUC (Afatinib; [2]) was 0.931, the IC50 (Afatinib; [2]) was > 10 µM and the AUC (XMD13-2) was 0.929. For the same cell line, the IC50 (XMD13-2) was > 10.2 µM.
Work on “ChaGo-K-1 (non-small cell lung carcinoma, adherent)” yielded an AUC (SNX-2112) of 0.812, an IC50 (SNX-2112) of 1660 nM and an AUC (PF-562271) of 0.938. For the same cell line, the IC50 (PF-562271) was > 2560 nM, the AUC (Afatinib; [2]) was 0.979 and the IC50 (Afatinib; [2]) was > 10 µM. For the same cell line, the AUC (XMD13-2) was 0.952 and the IC50 (XMD13-2) was > 10.2 µM.

Reference: the supplement of paper PMC4967469
